Reference: the RNAGym collection of RNA variant scans (doi:10.1093/nar/gkz1192)
Read counts are not given, so values of variants with three or more changes are uncertain.

B1: CPEB3 Ribozyme (parent)
chain: UAACAGGGGGCCACAGCAGAAGCGUUCACGUCGCAGCCCCUGUCAGAUUCUGGUGAAUCUGCGAAUUCUGCUGUAUAUCUC

Variants of: B1
Experiment: self-cleavage, relative activity (ratio to wild type); higher = more cleavage; in vitro, sequencing
Outline: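 Barcoded CPEB3 ribozyme mutants, produced by rounds of error-prone PCR, self-cleaved while being transcribed with T7 RNA polymerase for 5 hours at 37°C and during a subsequent 15 min DNase I step before EDTA was added. Sequencing of template-switched cDNA on Illumina gave cleaved and total reads, and DNA sequencing assigned barcodes to variants. Each variant's relative activity is its cleaved/total read fraction divided by the unmutated ribozyme's fraction, averaged across three batches. A variant needed a minimum of 5 reads.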

Variant	self-cleavage
A2G C14A U58C	0.3
A2G A13U A57G U69A	0.2
A2G A47G U72A U80C	0.61
A2G G7A A13G A15G U41A A57G	0.07
A2G A35U A45U A47C C50U A64U	0.16
A2G A13G U26C C29U	0.3
A2G A18U C44A U51C A65G A75C	0.1
A2G G6U A20G C29U C34U U43C U48C	0.06
A2G G7A A18G A47G U67C	0.07
A2G A65G U69C A75G	0.19
A2G A21G A45U U48C U49G A56G	0.23
A2G A64U C81A	0.28
A2G A20G A28G C40A	0.39
A2G A20U G24A U60A	0.33
A2G C23U U60A	0.16
A2G A13U U26A C32U A65G U72C U80C	0.06
A2G A56G U60C U78A	0.14
A2G A5U G10A U25C A56G U60A	0.2
A2G A35U G55C A65U U67A	0.29
A2G C29G A35U A45G U80C	0.38
A2G A13G C27A U72C	0.35
A2G A28G U48C U54A U69C A77G	0.06
A2G G6U A15G U80C	0.95
A2G A18U G19U A35U A64U U72A	0.04

Variant	self-cleavage
A2G C11U A13U A18G C62U U76C	0.06
A2G C34A A35U U60G A64U U78C	0.12
A2G A20G U26C A45G U54C	0.42
A2G A5U C37A	0.16
A2G A20G U26C U43C A57G U78C U80C	0.39
A2G A45C U58C	0.16
A2G A18G A28U G52C G63U	0.26
A2G G7A A18G	0.25
A2G C11A A13G A57G U66C	0.22
A2G A20U A56G C68G	0.07
A2G A21U A28U U31C A35U A56C	0.07
A2G A15U G24C U31C U49A	0.05
A2G C23U U66C U72C	0.06
A2G A35G U43A U74A	1.27
A2G A20G G24A	0.32
A2G A15G U43A	0.9
A2G A47C A64G	0.21
A2G A20U U60A U80C	0.3
A2G C23A A28U U41A	0.27
A2G A15C U25C U60A U67C	0.29
A2G A13G C38U U51C A64G	0.21
A2G A21G C71A U74C	0.31
A2G A28G A45G	0.29
A2G A5U A15G A47G U48C	0.54

Variant	self-cleavage
A2G A57G G70U U72C	0.1
A2G A57G U58C C81A	0.06
A2G A15C A18G U43G U48A	0.08
A2G C12U A45G A57G	0.43
A2G A20G U51C A56G U72A	0.16
A2G A56G A64G U76C	0.12
A2G A45G U49C A75G	0.23
A2G A18G C34G	0.34
A2G A45G C81A	0.74
A2G A15G A21G C32A A35G U60C	0.25
A2G C40U U67C U72A	0.08
A2G A35U U69C	0.43
A2G A13C U31A U69C U72G	0.12
A2G A15G U58C	0.29
A2G A13G A18G A28U	0.72
A2G A47G U54A U78C	0.75
A2G A15C A21U U31C U41C U43A U67C	0.03
A2G A13G A35U U60A	0.05
A2G G6A A35U	0.26
A2G A35G U60A U72C	0.79
A2G A15C U25C C40U	0.56
A2G A18U U60A U78C	0.18
A2G G6A G10A C23G U72C	0.07
A2G A15G U26A U69A U72C	0.12

Variant	self-cleavage
A2G G7C A13U U72C	0.63
A2G A35G A56G A64U	0.56
A2G A13G G55C A64G U78A	0.09
A2G C12U A18G A21G C27A U48A	0.05
A2G A18C U43C U51A	0.09
A2G A13U A45G	0.47
A2G A13U A18G A21G U74C	0.69
A2G A15G U31A U43A A45U	0.2
A2G C29U U41A U58C	0.08
A2G A13G A15G C38U C59A U72C	0.47
A2G A35U U51C	0.36
A2G A28U U41G U66C U78C	0.16
A2G A35C U72A	0.23
A2G G6A U76A	0.16
A2G A20U A64G	0.29
A2G A15U A47G A65G	0.17
A2G G7A A13G U26C U41C	0.06
A2G A56U A77C	0.14
A2G A45U G52U U78C	0.36
A2G C11U A45G U48C	0.05
A2G G6U A15G A45U U67C	0.28
A2G A15G G33A	0.41
A2G C29A U41A	0.21
A2G A20U A21G A45C	0.35

Variant	self-cleavage
A2G A20C U41C U54C U60A U78C	0.05
A2G A5U A15U C44U	0.61
A2G C11U A15G	0.1
A2G A5U U25C U31C U51C U58A A64G	0.12
A2G A5U U54C U76C	1.12
A2G G6A A18U U60C U69C G73A	0.22
A2G A20G C29U U49C U54C U80C	0.08
A2G A13U A21U U72C U80C	0.72
A2G C32A U43C G53A U69A	0.07
A2G A20C U43C U80C	0.09
A2G A20G G30A A35G U60C U69A	0.31
A2G C29G A47G U72A	0.18
A2G C11A A28U U49C	0.08
A2G C12A G16A A20G A28U U72A U80A	0.17
A2G A18G A45G U66C U67C	0
A2G A13C U25C U26G A45G A56G	0.47
A2G A45U U69C	0.2
A2G A21U U26G U72C U80A	0.06
A2G A35G U54C U78C	1.07
A2G C29A U43C C44U C68A U72A	0.2
A2G A13U A28U U41C A64G	0.19
A2G A15G U26A C79U	0.45
A2G A21G U25C C32U	0.32
A2G A21G U78C	0.21

Variant	self-cleavage
A2G A18U U41A C71A	0.36
A2G A13U U41C U67A	0.39
A2G C23G A56U A75C	0.3
A2G A13U U41A	0.23
A2G C27A U43A U48C A64U	0.16
A2G C40U A64G U74A	0.37
A2G C23U A56G U76A	0.4
A2G A18C G24A U41C U80A	0.07
A2G A35U G52A U60C	0.54
A2G A13G U41G G52U G70A U80C	0.24
A2G A13G A20G	0.43
A2G A15U G24U A45U U78A	0.08
A2G C32A C38G U72C	0.36
A2G A18G U26C A56G U72A	0.24
A2G A45G A64U U69C C81A	0.31
A2G A20U A57G	0.15
A2G A35U U60C	0.09
A2G C11U A20G A28G A57G U72C U76A	0.07
A2G C37A U80C	0.25
A2G A20G U26A C29G U48C	0.11
A2G C11A A21G U66C	0.09
A2G C4U U48C A56U U78C	0.55
A2G A13G A21G U25C U67C A77G	0
A2G A13U A20G U54C A56U U60A	0.12

Variant	self-cleavage
A2G A13G A15G U41A U48C	0.1
A2G A21U U60A	0.22
A2G G6A U41C U60A U74C	0.38
A2G A20G U69A	0.21
A2G A35U U43C U58C U78C U80C	0.04
A2G A65G U66C U67C U78A	0.21
A2G A18U C39A A45U G46C A77G	0.01
A2G A13U U58C	0.19
A2G A5U A20G U26G A35U U51G	0.06
A2G A20G U41A U54G A64G U74C	0.25
A2G A45U U51A U60C U69A	0.08
A2G C11G A18U U41A C68U U80C	0.06
A2G C4U A20G U25C A35G	0.19
A2G A13G A35U	0.73
A2G A21G U54A U80C	0.32
A2G C40U G42A U51C	0.41
A2G A18U U25C U72A	0.08
A2G A18U A35G C37A G61A	0.12
A2G A13G U26C U41C	0.5
A2G C23U U43C G61A U80C	0.08
A2G A13G C39U	0.35
A2G A28U U54C	0.56
A2G A28C U43C G46A U48C U69G	0.18
